Measured values taken from the RNAGym collection of RNA variant scans (doi:10.1073/pnas.2313332121).
Variants at the floor of the assay are shown more often than the library holds them.

B1: TPR 5TU (parent)
chain: GGAUCUUCUCGAUCUAACAAAAAAGACAAAUCUGCCACAAAGCUUGAGAGCAUCUUCGGAUGCAGAGGCGGCAGCCUUCGGUGGCGCGAUAGCGCCAACGUUCUCAACUAUGACACGCAAAACGCGUGCUCCGUUGAAUGGAGUUUAUCAUG

Variants of: B1
Experiment: polymerase ribozyme fitness, log enrichment relative to wild type (log ratio); higher = more active; in vitro selection for triplet polymerase activity
In short: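 The heterodimeric triplet polymerase ribozyme's subunits were each mutagenized into PCR-built libraries and transcribed. Every library was selected once, in triplicate, by annealing with a biotinylated primer, the partner subunit and triplets, incubating frozen at −7 °C, gel-excising extended constructs, capturing on streptavidin beads and running RT-PCR. Input and output libraries were Illumina-sequenced, with genotypes kept only at ≥10 input reads and ≥1 read per output. Fitness, from inverse-variance-weighted replicate averages, is the base-2 logarithm of genotype enrichment over wild-type enrichment.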

Polymerase ribozyme fitness (log ratio), -0.294:
C5A A20C C96U

Polymerase ribozyme fitness (log ratio), -3.92:
C5A A28U

Polymerase ribozyme fitness (log ratio), ≤ -4.2:
U4G U9G A22C G62C G88A C95G G117U A122G A137C
U4G U13A A40U G58A G68U U78C C85U A107C
U4G U13G A39C A52G G86A C114A A115G C123A G141A
U4G U13G C96A A120G G133U A142U
U4G U15G A29U U55A C93G U145G
U4G U15G A30G A41U G46U C69G C76U C93G G143C
U4G U15G C57G C87A
U4G U31A C54U G86C G92U U148G
U4G U31C G59C G68C G83A C99U
U4G U33C G67U C69A C93U
C5A A12C A19U U102G C116A A119G U135A G136C
C5A A16C A21U A24C C27G A28G C51U C76A C114U U139A
C5A A16C C72A G83C G84C C85A A121C C125G G136A
C5A A16G G50U C51A A89U U134G A137G G140A A142C A147C
C5A A16G U44A C57G C69U U78G C79G G80U U109G
C5A A17G A21C C32U G50U A98U C108U
C5A A19U A23C C57A G68C C75U U77A G86U G143C
C5A A19U C51G A73G A138C
C5A A20C C32U A49U A91G C108G A121U
C5A A20G A49C C85U G88C A115G A120G A137G
C5A A20U A28U A30C C85A C125U
C5A A20U C43G A64C G88C
C5A A21C C35U G74C G128U U139G
C5A A21C G74A U82G G92U
C5A A21G A41C A64U C85A C96U A110U G117U
C5A A21U C32U C38G G50A C57A G59A A89G U145C
C5A A22U C43U C87G C95U C116G
C5A A22U C75U C76A G88A A89C A91G C105U A119G U144G
C5A A23C C27A C43A G50U C85U C118G
C5A A23G G68U U78C A91C A110U
C5A A24G A28G A29U G67U G92A C108G C116A U127G G140U U145G
C5A A24G U31A U61C C87U G136U
C5A A24U U55A G92U C105U U139C
C5A A26C A30U A52C G70A G86C
C5A A26U C99A C125G
C5A A29U C51G A52U C85G A89U C93G
C5A A30C C87A
C5A A30C G94U G117U U135G G136A
C5A A30U C51G U61A G86A C103G C129U G136U
C5A A37U G84A U135A U139A G141C
C5A A39C G83A U102C A106U G124U U127G C131G
C5A A40C A47C C87A A115G
C5A A40G C63U A64G U77A G84A
C5A A40U A60C G84U C116U A150U
C5A A40U G70U C76G U146G
C5A A47G A73G G83C C87U G152C
C5A A49C C85G A89G U146C
C5A A49G C79A G84A G117C
C5A A52U A138G
C5A A52U U55A G88U C129U A142C U146A
C5A A64U G67A A97U A120U A121G C149G
C5A A66G C96U A115G U139G G140A
C5A C8A C10U G48A G58C U78G C95A
C5A C8G A17G A21U G25A C27G U134G C149G
C5A C8G A30U U56A A91U G128A A137G
C5A C8G C10G A52G G84A U127A U139A
C5A C10A C93A C105A
C5A C10G A89U U134C A137U A147U A150U
C5A C10U A19G C75U C93A U102G
C5A C10U A28U A39U U45G G68A A73G G84A
C5A C10U A41C A49C U139G U151G
C5A C14G A19G C36A U102G C132G
C5A C27A C87A U109A G126A
C5A C27A G34U U56A C125G
C5A C27G A40G U56A C75G U77A A119U
C5A C27G C54U G71A G84A U135G U144G
C5A C27U C85U C93G A107G
C5A C27U U33G C79A
C5A C27U U55G G83A G92U U148A
C5A C32U G74C A91G A142G
C5A C35A U55A A91G G100U G126A A147G
C5A C35U A66G G74A C79A G83U C85A C95A U102G U104G
C5A C36U C79U A121G
C5A C38G A41U U55A C85A A91G A110G G126A
C5A C51U G68A C96U G143C
C5A C54A C57A G58A G68A A89U C95G

Polymerase ribozyme fitness (log ratio), -0.599:
C5A A17U G83A U146G

Polymerase ribozyme fitness (log ratio), -1.19:
U4G U56G U144A

Polymerase ribozyme fitness (log ratio), -2.61:
C5A A16C A19U U61A

Polymerase ribozyme fitness (log ratio), -4.09:
C5A A26U C35G A39U C76U C85U C118U A119C

Polymerase ribozyme fitness (log ratio), -4.16:
C5A A17U U56A U127A
